# Laboratory results taken from the RNAGym collection of RNA variant scans (doi:10.1093/nar/gkz1192).
# Read counts are not given, so values of variants with three or more changes are uncertain.
# B1: CPEB3 Ribozyme (parent)
# chain: UAACAGGGGGCCACAGCAGAAGCGUUCACGUCGCAGCCCCUGUCAGAUUCUGGUGAAUCUGCGAAUUCUGCUGUAUAUCUC
# Variants of: B1
# Test: self-cleavage, relative activity (ratio to wild type); higher = more cleavage; in vitro, sequencing
# How it was run: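 Relative activity was defined as the cleaved/total read fraction for a variant divided by the same fraction for the unmutated ribozyme. CPEB3 self-cleaving ribozyme libraries were made by rounds of error-prone PCR, barcoded, and transcribed in vitro with T7 RNA polymerase for 5 hours at 37°C, and cleavage ran through transcription plus a 15 min DNase I step before EDTA. Illumina sequencing of template-switched reverse transcripts gave the reads, and DNA sequencing mapped the barcodes. Averages come from three batches, using variants with at least 5 reads.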
row,Variant,self-cleavage
1,C27U A57U U60C U69A U74C U78C,0.03
2,A28G A47G U76C,0.57
3,A28G A35U U48C U80C,0.09
4,A28G C37A U60A A65G G70A,0.08
5,A28G C50U U72A,0.17
6,C27U U51C U76C,0.11
7,A28C A45G G52A A75G U78C,0.13
8,A28G A64G C81G,0.5
9,A28C U60C A65G U72G,0.14
10,A28C C29A C34A U54C A56U,0.34
11,A28G C40U U49C,0.44
12,A28G A35U A47U,0.07
13,A28G A35G A64G U72C A75G U80C,1.04
14,A28G A56G U58C,0.46
15,A28C A35G U51A A56G A65G U69A,0.25
16,A28C U67C U72A,0.39
17,C27U A28U U41A U43C U69A,0.11
18,A28G C40A A77U,0.11
19,C27U A57G U60A U78C U80C,0.14
20,C27A U54C A56G U58A,0.13
21,A28G A47G U49A C50U U66C U80C,0.08

row,Variant,self-cleavage
1,A28G C29U U49C A64U,0.04
2,A28G A64G U69A,0.14
3,A28G C29U G33A U80A,0.1
4,C27A A28U U31C U51C G52A U78C,0.05
5,A28G C38A U41C U58C U72A,0.05
6,A28G A47G U49A A57U U72C,0.14
7,A28G A35G U43C U78A,1.13
8,A28G A75G U80C,0.23
9,A28C U41A A56U G63U A75G,0.16
10,C27G G42A U54A U58C U69A A75U,0.08
11,A28G G30U U43C U60C,0.03
12,A28C U43C U58C,0.4
13,A28G A56G U76C,0.3
14,A28G A56G U76G,0.53
15,A28G A47G U54A A64G U66C U72A,0.08
16,A28G A57C A65G,0.06
17,A28G A47G U66A,0.26
18,C27A U31C A35G U54C C62U U78G,0.11
19,A28G A64U A65G U72C,0.13
20,A28G C32U U54C U58C,0.08
21,C27G A35U U41C U43C A45U U69C U76A,0.03

row,Variant,self-cleavage
1,A28G A35G C39U A45U,0.51
2,A28G A47U U69A,0.39
3,A28G A47G U58C U78A,0.9
4,A28C U49G A64G,0.11
5,A28G C44U U48C A56G,0.04
6,A28G A77G U78G,0.3
7,C27A U69C A75U U80A,0.14
8,C27U U54A A64G A65G U69A G73A,0.04
9,A28G A35U U43C A56G,0.15
10,C27A U48C U67C,0.07
11,A28G A65G U69A G73U,0.15
12,C27U A28G A64G,0.4
13,A28G A45U U48C,0.09
14,C27U U54C U80A,0.25
15,C27G A28U G30U,0.16
16,C27U C32A U60C,0.13
17,A28G A35G U74A,1.2
18,A28G C29U U72A U80C,0.51
19,A28G A56U U60C,0.45
20,A28G A45G U51A,0.35
21,C27U G30A U43A A45C U80C,0.3

row,Variant,self-cleavage
1,C27A A45U A47U,0.17
2,C27U U54A A64G A65G,0.15
3,A28G A45U U49C U51A U69C,0.11
4,A28G G33A A35G,0.19
5,C27U U49C G52C,0.08
6,C27U U51C U58C,0.2
7,C27U G33A G42A U43C A45G A64U U80C,0.36
8,A28G A35G C40A U54G C71U,0.12
9,A28G A35U C44A,0.44
10,C27A U49C U66C U69A,0.11
11,A28G C37A U69C,0.11
12,A28G C29U U80A,0.58
13,C27G U66A A75G U80A,0.09
14,C27U A64G G70C,0.13
15,A28G A47G U51A U80A,0.66
16,A28G A35G A56G A57G G61A A64U U80A,0.2
17,C27A U51G U76C U78C,0.13
18,A28G C34A U51C G52U C62U A65U U67A,0.19
19,A28G G30A A77G,0.07
20,A28G A35G A47G U51C U58C A77U,1.22
21,A28C U41C U76A U78A,0.36
